Measured values as given in paper PMC3509445 (Biology Open, 2012).

Target: ThioHis-VHL30 (full-length VHL30 thioredoxin-His fusion protein) (UniProt P40337-1)
Test: pull-down

B1: GST-TLX ΔN (Δ[…]) (domain or fragment)
chain: not shown
B1: binds.
